Measured values taken from the CheMixHub viscosity set.
Where “and” joins values, the source holds several entries; their conditions need not be identical. Identical values can stand only once. This continues a long series; more values of the same kind are listed elsewhere.

Experiment: xn = mol fraction of the nth substance listed

OCC(O)CO + O
viscosity
Details	313.15 K	318.15 K	323.15 K
101 kPa, x1 = 0.021	–	–	0.68 mPa·s
101 kPa, x1 = 0.047	–	–	0.879 mPa·s
101 kPa, x1 = 0.077	–	–	1.16 mPa·s
101 kPa, x1 = 0.1005	–	–	1.446 mPa·s
101 kPa, x1 = 0.12	–	–	1.62 mPa·s
101 kPa, x1 = 0.16	–	–	2.37 mPa·s
101 kPa, x1 = 0.2026	–	–	3.104 mPa·s
101 kPa, x1 = 0.23	5.08 mPa·s	–	3.76 mPa·s
101 kPa, x1 = 0.27	6.8 mPa·s	–	4.89 mPa·s
101 kPa, x1 = 0.28	7.73 mPa·s	–	5.5 mPa·s
101 kPa, x1 = 0.281	5.427 mPa·s	–	3.837 mPa·s
101 kPa, x1 = 0.3085	6.479 mPa·s	–	4.687 mPa·s
101 kPa, x1 = 0.31	9.4 mPa·s	–	6.61 mPa·s
101 kPa, x1 = 0.37	13.6 mPa·s	–	9.25 mPa·s
101 kPa, x1 = 0.399	12.55 mPa·s	–	8.47 mPa·s
101 kPa, x1 = 0.44	20.8 mPa·s	–	13.6 mPa·s
101 kPa, x1 = 0.5002	21.81 mPa·s	–	14.4 mPa·s
101 kPa, x1 = 0.53	33.5 mPa·s	–	21.2 mPa·s
101 kPa, x1 = 0.6006	52.92 mPa·s	–	22.57 mPa·s
101 kPa, x1 = 0.64	60 mPa·s	–	35.5 mPa·s
101 kPa, x1 = 0.6493	68.11 mPa·s	–	28.35 mPa·s
101 kPa, x1 = 0.66	68.1 mPa·s	–	39.8 mPa·s
101 kPa, x1 = 0.69	78.3 mPa·s	–	44.8 mPa·s
101 kPa, x1 = 0.6917	80.62 mPa·s	–	42.14 mPa·s
101 kPa, x1 = 0.72	89 mPa·s	–	51.5 mPa·s
101 kPa, x1 = 0.75	105 mPa·s	–	58.4 mPa·s
101 kPa, x1 = 0.79	121 mPa·s	–	67 mPa·s
101 kPa, x1 = 0.7958	132.4 mPa·s	–	75.22 mPa·s
101 kPa, x1 = 0.82	142 mPa·s	–	77.8 mPa·s
101 kPa, x1 = 0.86	166 mPa·s	–	88.9 mPa·s
101 kPa, x1 = 0.8905	182.3 mPa·s	–	98.41 mPa·s
101 kPa, x1 = 0.91	196 mPa·s	–	104 mPa·s
101 kPa, x1 = 0.95	235 mPa·s	–	122 mPa·s
101 kPa, x1 = 0.96	251.9 mPa·s	–	135 mPa·s
101.3 kPa, x1 = 0.002	0.657 mPa·s	0.605 mPa·s	0.55 mPa·s
101.3 kPa, x1 = 0.004	0.666 mPa·s	0.606 mPa·s	0.55 mPa·s
101.3 kPa, x1 = 0.005	0.694 mPa·s	0.629 mPa·s	0.565 mPa·s
101.3 kPa, x1 = 0.007	0.706 mPa·s	0.63 mPa·s	0.579 mPa·s
101.3 kPa, x1 = 0.009	0.713 mPa·s	0.645 mPa·s	0.59 mPa·s
101.3 kPa, x1 = 0.01	0.716 mPa·s and 0.735 mPa·s and 0.743 mPa·s	0.645 mPa·s and 0.667 mPa·s and 0.68 mPa·s	0.591 mPa·s and 0.605 mPa·s and 0.614 mPa·s
101.3 kPa, x1 = 0.02	0.756 mPa·s and 0.771 mPa·s	0.681 mPa·s and 0.699 mPa·s	0.619 mPa·s and 0.632 mPa·s
